In all, about 13,000 compounds were measured (“IFI”: median about 4, highest 2% from about 17 on). This is one part of the list.

The experiment is described as follows: GSK_TCMDC: Inhibition Frequency Index (IFI). The number of non-kinase HTS assays where a compound showed > 50 % inhibition, expressed as a percentage of the number of such assays in which the compound was tested (-0 is zero). It counts as functional.
In turn, `CN(C)Cc1c(O)ccc2[nH]c(-c3ccc(OC(F)(F)F)cc3)nc12` returned an IFI of 2.8%.

For `Cc1sc2ncnc(Sc3nnc(N)s3)c2c1C`, the IFI amounted to 5.04%.

For the compound `CC(C)COc1cc(C(=O)Nc2cnc3ccccc3c2)ccc1[N+](=O)[O-]`, the IFI amounted to 3.03%.

On to `Cc1cccc2nc(-c3cccc(-c4ccc(CN5CCN(CCO)CC5)cc4)c3)[nH]c12`, for which the IFI came to 3.92%.

On to `COc1ccc(CCN2CCC(Nc3nc4ccccc4n3CCc3ccc(OC)cc3)CC2)cc1`, for which the IFI is 6.02%.

`O=C(N[C@H]1CCN(Cc2ccc(OCCN3CCCC3)c(Cl)c2)C1)c1ccc(Cl)c(Cl)c1` came in with an IFI of 4.17%.

With `CCCCOc1c(CCNCCCCNCCc2cc(F)c3ccccc3c2OCCCC)cc(F)c2ccccc12`, the IFI is 19.6%.

Compound `CCCCNc1cc(C)nc(NCc2ccccc2)n1` gave an IFI of 9.72%.

`c1ccc(COc2ccc(Cn3ccc(-c4ccc(-n5ccnc5)cc4)n3)cc2)cc1.c1ccc(COc2ccc(Cn3nccc3-c3ccc(-n4ccnc4)cc3)cc2)cc1` registered an IFI of 2.52%.

For `COc1cccc(CN2CCCN(Cc3cccc(NC(=O)c4ccc(-c5ccccc5)cc4)c3)CC2)c1`, the IFI was 6.9%.

`c1ccc(-c2cc(NCCNc3cc(-c4ccccc4)nc4ccccc34)c3ccccc3n2)cc1` came in with an IFI of 0%.

The compound `O=C(Nc1cccc(-c2ccc(-c3nc4cc(C(F)(F)F)ccc4[nH]3)cc2)c1)c1ccncc1` yielded an IFI of 7.02%.

`Cc1[nH]c2ccccc2c1CC1CCN(CC2CCN(C(=O)/C=C/c3ccc(Cl)c(Cl)c3)CC2)CC1`: the IFI was 1.46%.

`O=C(/C=C/c1ccc(Cl)c(Cl)c1)NCCCCCN1CCC(NC(=O)Nc2ccc([N+](=O)[O-])cc2)CC1` returned an IFI of 6.62%.

Regarding `N#Cc1ccc(C=CC(=O)NC2CCC(CCN3CCc4ccc(-c5cnccn5)cc4CC3)CC2)cc1` (centres undefined), the IFI worked out at 6.67%.

The compound `CO/C(=C\C=C\c1cc2cc(Cl)c(Cl)cc2[nH]1)C(=O)NC1CC2CCCC(C1)N2C` (centres undefined) gave an IFI of 13.1%.

Turning to `N=C(NCCCCC1CCCCC1)c1cccc(C(=N)NCCCCC2CCCCC2)n1`, the IFI came to 19.9%.

Regarding `CCCC1N=C(N)N=C(N)N1c1ccc(Cl)cc1` (centres undefined), the IFI is -0%.

`Cn1nc(C(F)(F)F)cc1-c1ccc(C(=O)Nc2ccc3c(c2)CNCC3(C)C)s1`: the IFI came out at 6.25%.

For `O=C(NCC1CCN(Cc2ccc(F)cc2)C1)c1cc(-c2cccc(C(F)(F)F)c2)cs1` (centres undefined), the IFI worked out at 7.55%.

As for `CCCCn1c(-c2ccco2)nc2c(c(=O)c3ccccc3n2C)c1=O`, the IFI was 0%.

For `Cc1cc(N)c2cc(NC(=O)/C=C/c3ccc([N+](=O)[O-])cc3)ccc2n1`, the IFI came to 3.47%.

On to `N=C(N)Nc1nccc(NCc2ccccc2)n1`, for which the IFI came to 5.3%.

`COc1ccc(Nc2ncc(Cl)c(Nc3cccnc3C(N)=O)n2)cc1N1CCN(C)CC1` showed an IFI of 11.5%.

Compound `CCNc1cc(C(=O)N[C@@H](Cc2ccccc2)[C@H](O)CNC23CCC(CC2)C3)cc(N2CCCCS2(=O)=O)c1` showed an IFI of 2.29%.

Compound `O=C(Nc1ccccc1)c1nn(CCCN2CCC(N3CCCC3)CC2)cc1-c1ccc(Cl)c(Cl)c1` yielded an IFI of 10.1%.

On to `CCc1ccc(NC(=O)N(CCCn2ccnc2)Cc2csc(-c3ccc(CNCc4ccccc4)cc3)n2)cc1`, for which the IFI worked out at 5.48%.

Consider `O=C(Cn1c(CCc2cccc(F)c2F)nc(=O)c2ccccc21)N(CCN1CCCCC1)Cc1ccc(-c2ccc(C(F)(F)F)cc2)cc1`, for which the IFI turned out to be 8.09%.

Compound `O=C(/C=C/c1ccccc1Cl)NC1CCC(CN2CCC(c3c[nH]c4ccncc34)CC2)CC1` (centres undefined) yielded an IFI of 1.41%.

The compound `CCNc1cc(C)nc(Nc2ccc(C)cc2)n1` had an IFI of 4.29%.

In turn, `CC(C)(C)c1ccc(NC(=O)c2ccc(CN3CCCN(CC4CCCCC4)CC3)cc2)cc1` yielded an IFI of 13.5%.

`CNc1ccc(CNCc2ccc(-c3ccc(-c4nc5cc(F)ccc5[nH]4)cc3)cc2)cc1` showed an IFI of 15.8%.

`CCN(CC)c1ccc(C=CC(=O)NCCN2CCC(N(C)C3CCCCC3C)CC2)cc1` (centres undefined) yielded an IFI of 5%.

For `OCC1CCN(Cc2cccc(-c3cccc(-c4nc5cc(C(F)(F)F)ccc5[nH]4)c3)c2)CC1`, the IFI was found to be 5.83%.

Take `O=S(=O)(c1csc2ccccc12)N(CCC(O)(C(F)(F)F)C(F)(F)F)Cc1cccc(O)c1`: the IFI was found to be 1.45%.

Turning to `O=C1CCCN1CCCNCc1ccc(-c2cccc(-c3nc4cc(F)ccc4[nH]3)c2)cc1`, the IFI was 2.94%.

`CC(C)(C)c1ccc(OCCCON2C(=N)N=C(N)NC2(C)C)c(C(C)(C)C)c1` yielded an IFI of 13.3%.

`COC(=O)c1cccc(CNCc2cccc(-c3cccc(-c4nc5ccccc5[nH]4)c3)c2)c1` registered an IFI of 10.1%.

In turn, `COc1cc2nc(N(C)Cc3cccc(I)c3)nc(N)c2cc1OC` displayed an IFI of 1.6%.

Consider `CCCCc1ccc(Cc2cnc3nc(N)nc(N)c3c2C)cc1`, for which the IFI is 5.71%.

`N=c1n(CCN2CCCCC2)c2ccccc2n1CC(=O)c1cccc([N+](=O)[O-])c1` gave an IFI of 1.4%.

Regarding `CC(C)CN1CCCN(Cc2cccc(NC(=O)c3ccc(Cl)c(Cl)c3)c2)CC1`, the IFI came out at 2.03%.

The compound `COc1ccc2nccc([C@@H](O)CN3C4CCC3CC(NCc3ccc5c(n3)NC(=O)CS5)C4)c2n1` (some centres undefined) showed an IFI of 2.86%.

`Cc1ccc(Nc2nc(N/N=C/c3cc4c(cc3Br)OCO4)nc(Nc3ccc([N+](=O)[O-])cc3)n2)cc1C` came in with an IFI of 2.29%.

In the case of `O=c1cc(NCCCN(Cc2ccccc2)Cc2ccccc2)[nH]c2ccccc12`, the IFI was determined as 3.7%.

`CC(C)NCc1cccc(-c2ccc(NC(=O)c3ccc(F)cc3)cc2)c1`: the IFI came to 1.96%.

`Cc1cccc2nc(-c3cccc(-c4ccc(NC(=O)C5CC(=O)Nc6ccccc65)cc4)c3)[nH]c12` (centres undefined) displayed an IFI of 1.72%.

Take `Nc1nc(N)c2c(ccc3c2ccn3Cc2ccccn2)n1`: the IFI came out at 3.55%.

As to `Cc1cc(NCc2ccccc2)nc(NCc2ccccc2)n1`, the IFI amounted to 8.78%.

In the case of `Cc1cccc2nc(-c3ccc(-c4ccc(CN5CCC(C(N)=O)CC5)cc4)cc3)[nH]c12`, the IFI is 2.91%.

Take `CCNC(=O)N1CCc2ccc(Oc3nc(NCc4ccccc4OC)ncc3C)cc2CC1`: the IFI is 6.1%.

As for `Cc1cc(Nc2ccc3c(c2)CCC3)n2ncnc2n1`, the IFI was found to be 1.49%.

In turn, `CS(=O)(=O)c1ccc(CNCc2cccc(-c3ccc(-c4nc5cc(C(F)(F)F)ccc5[nH]4)cc3)c2)cc1` had an IFI of 6.73%.

`COc1ccccc1/C=C/C(=O)N(C)C1CCN(CCCCCNC(=O)/C=C/c2ccc(Cl)c(Cl)c2)CC1` displayed an IFI of 7.91%.

Regarding `CCC(=O)c1cc(C(=O)NCCc2cccc(OC)c2)ccc1OC`, the IFI stood at 0%.

Compound `Cc1cc(NC(=O)c2ccc(-c3ccccc3)cc2)no1` showed an IFI of 0.68%.

Compound `CC(C)(C)C1CC(=O)CC2C(=O)N(C3CCCCC3)C(=O)C21` (centres undefined) showed an IFI of 0.74%.

`COc1cccc(CNC[C@@H](O)[C@H](Cc2ccccc2)NC(=O)c2cc(C3CCCC3)cc(N3CCCCS3(=O)=O)c2)c1` had an IFI of 8.96%.

`Cc1cccc2nc(-c3cccc(-c4cccc(CNC(C)C)c4)c3)[nH]c12` yielded an IFI of 3.96%.

For `O=C1CCCN1CCCNCc1cccc(-c2cccc(-c3nc4cc(C(F)(F)F)ccc4[nH]3)c2)c1`, the IFI stood at 5.77%.

The compound `CN(C)c1ccc(-c2ccc(C(=O)NC3CCN(Cc4ccccc4F)CC3)s2)cc1` came in with an IFI of 3.64%.

Compound `COc1ccc(Oc2ccccc2CNCC2CCN(CC3CCCCC3)CC2)cc1` came in with an IFI of 7.35%.

On to `Cc1[nH]c(C)c(-c2ccc(CCc3ccc(F)cc3F)cc2)c(=O)c1Br`, for which the IFI was -0%.

The compound `COc1cc2nc(-c3ccccc3)nc(N3CCN(CC(=O)N4CCCC4)CC3)c2cc1OC` yielded an IFI of 0%.

`COc1ccc2nccc([C@@H](O)CN3CCC(NCc4cnc5c(c4)NC(=O)CS5)C(F)C3)c2c1` (some centres undefined) registered an IFI of 4.76%.

`c1ccc2c(Nc3ccc(OCCOCCOc4ccc(Nc5c6ccccc6nc6ccccc56)cc4)cc3)c3ccccc3nc2c1` yielded an IFI of 3.76%.

`O=C(O)CCCN1CCCC(=C(c2ccccc2)c2ccccc2)C1` returned an IFI of -0%.

Compound `FC(F)(F)c1ccc2[nH]c(-c3ccc(-c4ccc(CNCc5cnn(-c6ccccc6)n5)cc4)cc3)nc2c1` showed an IFI of 12.7%.

Regarding `COc1cc(F)c2ncc(Cl)c(C(O)CN3CCC(NC(=O)c4ccc5c(n4)NC(=O)CO5)CC3)c2c1` (centres undefined), the IFI was found to be 2.19%.

Compound `C#C[C@H]1O[C@@H](n2cnc3c(Nc4cc(Br)cc(C(F)(F)F)c4)ncnc32)[C@H](O)[C@@H]1O` came in with an IFI of 1.45%.

`COc1cc(C(F)(F)F)c2cc(CNCCCNc3nc4ccccc4[nH]3)[nH]c2c1` came in with an IFI of 7.09%.

`Cc1cccc(C)c1CNc1nc(N2CCOCC2)cc2c(C)c(C)[nH]c12`: the IFI is 10.7%.

Compound `CC(C)Cn1c(Sc2ccc(C#N)c([N+](=O)[O-])c2)nnc1-c1cccc(Cl)c1` yielded an IFI of 4.93%.

With `CCCOc1cccc(C(=O)N[C@@H](Cc2ccccc2)[C@H](O)CNCc2cccc(OC)c2)c1`, the IFI came to 8.54%.

Turning to `CN1CCC(Oc2ccc(CN3CC[C@H](NC(=O)c4ccc(F)c(F)c4)C3)c3ccccc23)C1` (some centres undefined), the IFI stood at 6.99%.

`CS(=O)(=O)CCN(CCS(C)(=O)=O)Cc1ccc(-c2ccc3ncnc(Nc4ccc(OCc5cccc(F)c5)c(Cl)c4)c3c2)o1`: the IFI was 3.7%.

In the case of `c1cc(CN2CCCCC2)cc(-c2csc(-c3nc4ccccc4[nH]3)c2)c1`, the IFI is -0%.

Take `CC(C)CCn1c(Sc2ccc(C#N)c([N+](=O)[O-])c2)nnc1-c1ccc(Cl)cc1`: the IFI came to 5.04%.

For `CN1CCN(CCCNCc2ccccc2-c2cccc(CNCc3ccc4c(c3)OCO4)c2)CC1`, the IFI is 3.73%.

Compound `CCCCCn1c(Sc2ccc(C#N)c([N+](=O)[O-])c2)nnc1-c1ccc(OC)cc1` returned an IFI of 5.71%.

The compound `CN(C)c1ccc(-c2csc(C(=O)NCC3CCN(Cc4cccc(C(F)(F)F)c4)C3)c2)cc1` (centres undefined) had an IFI of 6.12%.

Regarding `NC(=O)C1CCN(Cc2ccc(-c3ccc(-c4nc5cc(C(F)(F)F)ccc5[nH]4)s3)cc2)CC1`, the IFI stood at 6.8%.

Regarding `O=C(NC1CCN(Cc2ccccc2)CC1)c1ccc(-c2nc3cc(Cl)c(Cl)cc3[nH]2)s1`, the IFI came to 3.68%.

For the compound `O=C(Nc1ccc2c(c1)CCN2C1CCN(Cc2ccc(C(F)(F)F)cc2F)C1)c1ccco1` (centres undefined), the IFI is -0%.

Consider `CCC(CC)n1c(COC)cc2c3c(N)nc(N)nc3ccc21`, for which the IFI was determined as 2.72%.

For `CC(C)C(NC(=O)c1c(F)cccc1F)C(=O)Nc1ccc(Cc2nc3ccccc3s2)cc1` (centres undefined), the IFI was 0.99%.

Turning to `C=C(NC(=O)C1CCCCC1)C(=O)OC`, the IFI was -0%.

Turning to `Cc1cccc(CNc2nc(C)cc(N[C@@H](Cc3ccccc3)C(=O)NCc3cccc(F)c3)n2)c1`, the IFI was found to be 19.1%.

With `NCC1CCCN1Cc1cccc(-c2ccc(-c3nc4cc(C(F)(F)F)ccc4[nH]3)cc2)c1` (centres undefined), the IFI was found to be 8.82%.

The record behind these values is ChEMBL document CHEMBL1157539, “Thousands of chemical starting points for antimalarial lead identification” (Nature, 2010).
